According to ChEMBL document CHEMBL4888484, “Replenishing the malaria drug discovery pipeline: Screening and hit evaluation of the MMV Hit Generation Library 1 (HGL1) against asexual blood stage Plasmodium falciparum ,using a nano luciferase reporter read-out” (2022):
Out of some 150,000 compounds screened, about 540 (0.36%) showed an effect of 50% or more. The list shows a part of the results.

tested on: Plasmodium falciparum; test: Primary screen in NF54 nanoGlo assay, in single point, at 2uM, 72h; a lower Z score goes with more inhibition; assay type: functional, Erythrocyte; conditions: timepoint 72 hour

Row | Compound | % Inhibition [%] | Z score
1 | O=C(O)C1C2C=CC(CC2)C1C(=O)N1CCC(Cc2ccccc2)CC1 (configuration not stated) | -44 | 5.22
2 | Cn1c(CCc2ccco2)nnc1N1CCC(OC2CCC2)CC1 | -10 | 1.86
3 | Cc1cccc(N2CCC(N3CCc4nocc4C3)CC2)c1 | -18 | 2.09
4 | CC(C)NC(=O)[C@@H]1C[C@@H](N)CN1C(=O)Cc1csc(-c2ccccc2)n1 | 2 | -0.41
5 | O=C(c1ccccc1)N1c2ccccc2C=C[C@H]1c1c[nH]c2ccccc12 | 4 | -0.58
6 | CCOC(=O)[C@H]1CCCN(CC(=O)N(C)C)C1 | -2 | 0.22
7 | Cc1ccc(S(=O)(=O)N2CCC3(CC2)C(=O)N(CC(=O)NC[C@H]2CCCO2)CN3c2ccccc2)cc1 | -3 | 0.47
8 | CCc1ccc(Cn2nc(CC(N)=O)nc2-c2ncccc2C)cc1 | -6 | 1.12
9 | CCCNC(=O)O[C@@H]1CC[C@]2(C)[C@H](CC[C@@H](O)[C@H]2CC(=O)N2CCCC2)[C@]1(C)CO | -9 | 1.33
10 | O=C(c1cc(-c2ccccc2)n[nH]1)N1CCC(Oc2cccnn2)CC1 | -13 | 2.48
11 | CCc1ccccc1S(=O)(=O)N1CCc2[nH]cnc2C1 | -16 | 1.81
12 | NC(=O)N1CCCN(C(=O)c2ccncc2C(F)(F)F)CC1 | -4 | 0.56
13 | Cn1cc([C@H](NS(=O)(=O)c2ccco2)c2ccc(F)cc2)cn1 | -10 | 1.47
14 | COc1ccc(-c2noc([C@@H]3CCCN3C(=O)Nc3ccc(F)c(Cl)c3)n2)cc1 | -1 | 0.2
15 | O=C(c1cccc(Cl)c1)N(CCS(=O)(=O)N1CCNCC1)C1CCCC1 | -10 | 1.09
16 | O=C(NC1CC1)c1cccc(C(=O)N2CCN(c3c(F)cccc3F)CC2)c1 | -8 | 0.94
17 | CC1CN(S(=O)(=O)c2ccc3c(c2)Cc2cc(S(=O)(=O)N4CC(C)OC(C)C4)ccc2-3)CC(C)O1 (configuration not stated) | -12 | 1.53
18 | CN(C)Cc1ccc(C(=O)N2CCOCC(F)(F)C2)cn1 | -11 | 1.36
19 | Cn1nc([C@H]2CCCOC2)cc1NC(=O)NCC(F)(F)c1cccc(F)c1 | 10 | -1.64
20 | CC(C)C(NC(=O)c1c(Cl)cccc1Cl)C(C)C | -7 | 0.92
21 | COc1ccc(C(=O)N2CCNC(=O)[C@@H]2Cc2ccccc2)cc1F | -1 | 0.3

Row | Compound | % Inhibition [%] | Z score
22 | Cc1nc2c(C)cccc2cc1C(=O)NC[C@H]1CN(S(C)(=O)=O)CCO1 | 15 | -1.92
23 | CCC(CC)(CNC(=NC)NCc1nncn1C)c1ccccc1 | -8 | 1.4
24 | Cc1noc2ncc(C(=O)N(CCc3cccs3)Cc3cccs3)cc12 | -6 | 0.78
25 | CCN(c1cccc(C)c1)c1nc(-c2ccccc2)ncc1C(=O)N1CCN(c2ccccc2F)CC1 | -12 | 2.13
26 | COc1ccc([C@@]2(C)NC(=O)N(CC(=O)NC3CCCC3)C2=O)cc1OC | -2 | 0.38
27 | CCC1(C)CCCN(CC(C#N)CCC#N)CC1 (configuration not stated) | -9 | 1.26
28 | C[C@@H](CCN1CCC(=O)N(Cc2ccncc2)CC1)c1ccccc1 | -1 | 0.14
29 | O=C(NC1CCN(c2cnsn2)CC1)c1ccc(F)c(F)c1 | -25 | 3.17
30 | O=C(Cn1ccn2nc3c(c2c1=O)CCCC3)N1CCCc2ccccc21 | -3 | 0.49
31 | O=C(Nc1ccc(N2CCCN(Cc3ccc(F)c(F)c3)C2=O)cc1)c1ccccc1 | -7 | 0.91
32 | Nc1nc(C2CC(O)C2)cc(N2CCN(c3ccc(F)cc3)CC2)n1 (configuration not stated) | 1 | -0.16
33 | CN(CC(=O)N[C@H]1CCCCNC1=O)c1ccccc1Oc1ccccc1 | -14 | 1.82
34 | Cc1cc(C)n(-c2cncc(N[C@H]3CCc4nc(C)nn4C3)n2)n1 | 4 | -0.74
35 | C#CCCC1(CCC(=O)N2CC(C3CCCCC3)CC2C(=O)O)N=N1 (configuration not stated) | -1 | 0.07
36 | Cc1ccc(-c2ocnc2C(=O)Nc2cccc(C)c2C)o1 | 2 | -0.22
37 | O=C(c1ccncc1)N1CC[C@H](c2nc3ccccc3o2)C1 | 18 | -2.11
38 | Cc1cnc(C(C)NC(=O)C2COc3ccc(Br)cc32)o1 (configuration not stated) | -10 | 1.79
39 | CCc1sc(N(C(=O)Cc2ccccc2)c2ccccc2Cl)nc1-c1ccccc1 | -11 | 1.44
40 | Cc1ccc2[nH]c(CN[C@@H](C)CNS(=O)(=O)C3CC3)nc2c1 | -1 | 0.21
41 | CCOC(=O)N1CCC(N2CCOc3c(cc(-c4ccc(OC)nn4)cc3OC)C2)CC1 | -7 | 0.98
